Results published in PMC4336329 (PLoS ONE, 2015).
About 2,200 (0.71%) of roughly 310,000 compounds showed an effect of 50% or more. Effects have a minus sign here. The list shows a part of the results.

Target: human ether-à-go-go-related gene (hERG) potassium channel (human, UniProt Q12809)
Test: primary screen, population patch clamp on CHO cells stably expressing hERG

Sequence of human ether-à-go-go-related gene (hERG) potassium channel (Q12809 whole entry, looked up): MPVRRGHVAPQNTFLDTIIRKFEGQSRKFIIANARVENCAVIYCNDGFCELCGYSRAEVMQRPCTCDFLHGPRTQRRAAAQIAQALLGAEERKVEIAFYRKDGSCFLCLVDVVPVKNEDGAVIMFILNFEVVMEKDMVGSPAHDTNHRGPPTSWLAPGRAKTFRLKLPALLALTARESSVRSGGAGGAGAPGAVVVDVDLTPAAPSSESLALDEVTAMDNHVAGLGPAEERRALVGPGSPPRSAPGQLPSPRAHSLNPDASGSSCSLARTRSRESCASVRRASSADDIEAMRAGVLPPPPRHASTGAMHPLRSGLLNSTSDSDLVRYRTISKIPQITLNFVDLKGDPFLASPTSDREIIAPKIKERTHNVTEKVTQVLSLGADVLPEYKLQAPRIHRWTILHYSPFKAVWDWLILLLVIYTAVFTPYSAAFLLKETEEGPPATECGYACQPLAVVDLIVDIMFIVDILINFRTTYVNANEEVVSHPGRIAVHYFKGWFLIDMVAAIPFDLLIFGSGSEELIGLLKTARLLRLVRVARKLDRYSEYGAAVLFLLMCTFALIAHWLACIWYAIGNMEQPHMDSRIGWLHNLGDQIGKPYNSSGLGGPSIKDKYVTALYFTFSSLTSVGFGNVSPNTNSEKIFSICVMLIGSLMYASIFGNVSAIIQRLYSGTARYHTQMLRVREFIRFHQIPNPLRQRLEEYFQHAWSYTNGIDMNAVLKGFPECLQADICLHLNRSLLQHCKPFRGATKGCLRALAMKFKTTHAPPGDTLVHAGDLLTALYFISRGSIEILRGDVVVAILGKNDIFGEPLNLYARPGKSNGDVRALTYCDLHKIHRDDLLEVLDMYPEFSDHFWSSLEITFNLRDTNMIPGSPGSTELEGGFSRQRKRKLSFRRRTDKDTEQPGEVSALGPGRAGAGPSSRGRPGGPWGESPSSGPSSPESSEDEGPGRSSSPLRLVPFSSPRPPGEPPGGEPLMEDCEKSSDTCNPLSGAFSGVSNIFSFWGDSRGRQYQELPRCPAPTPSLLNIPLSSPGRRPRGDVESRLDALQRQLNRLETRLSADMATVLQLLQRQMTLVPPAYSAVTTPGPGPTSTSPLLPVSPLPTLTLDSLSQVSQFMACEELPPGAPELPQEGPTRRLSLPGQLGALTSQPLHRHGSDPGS

| Compound | hERG current change (%, negative = inhibition) at 1uM [%] |
| --- | --- |
| O=C(CSc1nc(-c2ccccc2)cc(=O)[nH]1)N1CCc2ccccc21 | -0.629 |
| Cc1ccc(C2(C)NC(=O)N(CC(=O)Nc3nc(-c4ccccn4)cs3)C2=O)cc1 (stereo not shown) | 7.58 |
| CCC1CCCCN1C(=O)COc1c(Br)cc(Br)c2cccnc12 (stereo not shown) | 15.9 |
| CC(=O)Nc1nnc(Cc2ccccc2)s1 | 13.8 |
| COC(=O)c1cnc[nH]1 | 10.4 |
| COc1ccc(-c2[nH]ncc2CN2C[C@@H]3CCC[C@H]2C3)c(F)c1 | 15.4 |
| CCOC(=O)C1=C(c2ccccc2)Nc2ncnn2C1c1ccccn1 (stereo not shown) | 6.89 |
| Cc1cc(=O)n2[nH]c(-c3ccc(F)cc3)cc2n1 | 11.1 |
| COCc1c(Br)c(C)nc(OCC(=O)N/N=C/c2ccc(C)o2)c1C#N | 3.72 |
| COCCCN(C(=O)c1cc2c(s1)CCC2)c1c(N)n(Cc2ccccc2)c(=O)[nH]c1=O | 7.23 |
| O=C(CN(Cc1ccccc1F)C(=O)c1csnn1)NCc1ccc2c(c1)OCO2 | 8.42 |
| CC(=O)Nc1ccc(S(=O)(=O)NCCC(=O)NCCCc2ccccc2)cc1 | 2.47 |
| COc1ccc(/C=N/n2cncn2)cc1Cn1cc([N+](=O)[O-])cn1 | -9.39 |
| CCOC(=O)c1cccc(-n2c(C)nc3ccccc3c2=O)c1 | 5.29 |
| O=C(NCCN1C(=O)C2C3C=CC(C3)C2C1=O)Nc1ccccn1 (stereo not shown) | 5.7 |
| COc1ccc(C(=O)COc2cccc(NC(=O)c3ccco3)c2)cc1 | -8.6 |
| CCCOc1ccccc1NC(=O)c1ccc(N)cc1 | -0.204 |
| COc1ccc(S(=O)(=O)Cc2ccc(C(=O)NC3CC3)o2)cc1 | 1.8 |
| CSc1ccccc1NC(=S)NC1CCCCC1 | 7.63 |
| CCc1ccc(/C=N/n2c(COc3ccccc3)n[nH]c2=S)cc1 | 13.6 |
| O=C(NCc1cccc(C(F)(F)F)c1)c1cc(Cl)ccc1Cl | 19.5 |
| COc1ccc2[nH]cc(CCNC(=O)COc3cc(C)cc4oc(=O)cc(C)c34)c2c1 | 5.9 |
| CC1CC(CCC(=O)NC(=S)Nc2ccc(S(N)(=O)=O)cc2)C(=O)O1 (stereo not shown) | 16.4 |
| CCC1(C)CC(CC(=O)O)(c2ccccc2OC)CCO1 (stereo not shown) | 11.1 |

| Compound | hERG current change (%, negative = inhibition) at 1uM [%] |
| --- | --- |
| Cc1cccc(NC(=O)C2CC(O)CN2C(=O)OCc2ccccc2)c1 (stereo not shown) | 7.92 |
| CC(C)c1ccc(N(CC(=O)NCCc2ccccc2)C(=O)c2csnn2)cc1 | -9.14 |
| CCOC(=O)Cc1csc(NC(=O)c2sc3nc4ccc(CC)cc4cc3c2N)n1 | 14.3 |
| Cc1cc2ncn(CC(C)C)c2cc1C | 10.1 |
| CC(OC(=O)c1ccc(-n2cnnn2)cc1)C(=O)Nc1ccccc1[N+](=O)[O-] (stereo not shown) | -3.03 |
| Cc1ccc2[nH]c3ccccc3c(=O)c2c1 | 4.4 |
| Cc1ccc2cccc(SCC(=O)Nc3ccc(F)cc3)c2n1 | 12 |
| COc1ccc(NC(=O)CSc2nncn2C)cc1 | 17.1 |
| N#Cc1ccccc1Sc1ccccc1C(=O)OCC(=O)NC1CCCCC1 | 4.72 |
| Cc1ccc(S(=O)(=O)NCCC(=O)N2CCC(C(N)=O)CC2)cc1C | -9.17 |
| COc1cc(/C=C2/C(=O)N(C)C(=S)N2C)ccc1OCc1cccc(F)c1 | 15.3 |
| CN(CC1COc2ccccc2O1)C(=O)CSc1ncnc2sccc12 (stereo not shown) | -1.12 |
| O=C(Nc1ccncc1)c1ccc(Cl)c(Cl)c1 | 9.21 |
| O=[N+]([O-])c1ccc(N=Nc2c(Cl)cc(O)cc2Cl)cc1 | 6.86 |
| CS(=O)(=O)N(CCC(=O)O)Cc1ccccc1 | -1.19 |
| COc1ccc(C(=O)COC(=O)c2cc([N+](=O)[O-])ccc2N2CCOCC2)c(OC)c1 | 7.74 |
| O=[N+]([O-])c1nn(-c2ccc(Cl)cc2)n(O)c1=NCc1cccnc1 | 9.32 |
| COc1cc(S(=O)(=O)NC2CCCC2)ccc1-n1cnnn1 | 9.26 |
| CCNC(=O)/C(C#N)=C/c1c(N2CCOCC2)nc2ccccn2c1=O | 9.75 |
| Cc1ccc(-n2nc(C)c3c(C)cc(=O)[nH]c32)cc1 | -11.2 |
| CCOc1ccc(NC(=O)N2CCN(CC)CC2)cc1 | 13.5 |
| O=C(NC(=S)NCc1ccccc1)c1ccccc1[N+](=O)[O-] | 8.17 |
| COC(=O)C1=C(C)N(c2cc(C)cc(C)c2)/C(=C/c2ccco2)C1=O | 12.2 |
| Cc1ccc(OCC(=O)NC2CC(C)(C)NC(C)(C)C2)c(C)c1 | 10.1 |

| Compound | hERG current change (%, negative = inhibition) at 1uM [%] |
| --- | --- |
| COc1cccc(C(=O)Nc2sc(C(C)C)cc2C(N)=O)c1OC | -29.7 |
| Cc1noc(C)c1C(=O)NCc1ccccc1F | 8.43 |
| C=CCn1c(C(C)NC(=O)c2ccc(C)cc2)n[nH]c1=S (stereo not shown) | 7.9 |
| COC(=O)Nc1ccc(C)cc1NC(=O)OC | 11.3 |
| Cc1cc(C)cc(C(N)=Nc2cccc(C#N)c2)c1 | -4.53 |
| Cc1ccc(C(=O)NNC2=Nc3cccc4cccc2c34)cc1 | 8.46 |
| Cc1cccc(OCCCn2c(CO)nc3ccccc32)c1 | 9.01 |
| CNC.Cc1cccn2c(NCC3CCCO3)c(C(C)C)nc12.Cl (stereo not shown) | -2.88 |
| CCc1ccc2[nH]c(=O)c(CN(Cc3ccc4c(c3)OCO4)Cc3nnnn3C3CCCC3)cc2c1 | 3.78 |
| CC(=O)c1cccc(NC(=O)N2CCC(NC(=O)c3ccco3)CC2)c1 | -13.1 |
| CCOC(=O)c1ccc(S(=O)(=O)n2c(=O)oc3ccccc32)cc1 | 8.39 |
| O=C(OCc1ccc(Cl)cc1)c1cnccn1 | 6.49 |
| COCCNc1nnc(SCC(=O)NNC(=O)c2ccc([N+](=O)[O-])cc2)s1 | 7.41 |
| COc1ccccc1-c1sc2cc3c(cc2c1C#Cc1ccccn1)OCO3 | 7.13 |
| COc1ccc(CC(=O)NCC2CCCN(Cc3ccc(SC)cc3)C2)cc1 (stereo not shown) | -17.1 |
| CCCC(=O)Oc1cccc(C2NC(=O)c3ccccc3O2)c1 (stereo not shown) | 13.4 |
| c1ccc(-c2cc(-c3nc(-c4ccccn4)no3)c3ccccc3n2)cc1 | 0.957 |
| O=C(Cc1cccs1)Nc1nnc(SCc2ccc(C(F)(F)F)cc2)s1 | 17.4 |
| Cc1ccc(CN2C(=O)CCC2C(=O)NCc2ccco2)cc1 (stereo not shown) | -0.469 |
| CSCc1cc(N2CCOCC2)nc(-c2ccccc2)n1 | 7.16 |
| Cc1[nH]nc(N)c1-c1ccccc1 | 12.8 |
| Cn1c(=O)cc(Nc2ccc(Cl)cc2)[nH]c1=O | 14.5 |
| O=C1CC(c2ccccc2)Sc2ccccc2N1 (stereo not shown) | -8.7 |
| O=C(Nc1cccc(-c2nn[nH]n2)c1)c1cccs1 | 15 |

| Compound | hERG current change (%, negative = inhibition) at 1uM [%] |
| --- | --- |
| CCOC(=O)c1cnc2c(cnn2C)c1Oc1ccc(OC)cc1 | 3.39 |
| C=C(c1ccccc1)c1ccccc1N | 10.7 |
| Cc1cc(C)cc(NC(=O)C2CCN(c3nc(C)cc(C)n3)CC2)c1 | 1.5 |
| CCOC(=O)c1ccccc1NC(=O)CSc1nc(N)cc(=O)[nH]1 | 12.6 |
| Cc1cccnc1NC(=O)CCNC(=O)c1ccc(Cl)cc1 | 13.3 |
| CCCCn1c(CNC(=O)CCC)nc2ccccc21 | -6.72 |
| COc1ccc(CCn2cc(C#N)c(=O)[nH]c2=O)cc1OC | 16.9 |
| O=C(CSC1CS(=O)(=O)c2cc([N+](=O)[O-])ccc21)NNC(=O)c1ccc(Cl)cc1 (stereo not shown) | -19 |
| Cn1c(SCC(=O)N(C2CCCCC2)C2CCCCC2)nnc1-c1cccs1 | 3.68 |
| Cc1ccc(NC(=O)CSC2=NCCN2)cc1.Cl | 18 |
| CC1COC2N=C(N[N+](=O)[O-])NC2O1 (stereo not shown) | 32.2 |
| COc1ccc(NC(=O)CN(C)C(=O)c2c(C)nn(Cc3ccc(C)cc3)c2Cl)cc1 | 0.744 |
| O=S(=O)(c1cccc(-c2nc3ccccc3s2)c1)N1CCOCC1 | 3.78 |
| O=C(NCCn1cccn1)c1ccc(OC2CCN(CCc3ccccc3)CC2)cc1 | -1.71 |
| CCN(CC(=O)Nc1ccccc1C(F)(F)F)C(=O)C1CSC2(C)CCC(=O)N12 (stereo not shown) | 6.27 |
| Cc1ccc(/C=N/NC(=O)c2nnn(-c3nonc3N)c2-c2cccs2)cc1 | 12.2 |
| CCN(CC)c1ccc(CNc2nc3ccccc3n2CC)cc1 | -12.9 |
| CCN(C(=O)CSc1nc(N)cc(=O)[nH]1)C1CCS(=O)(=O)C1 (stereo not shown) | 10.2 |
| COc1ccccc1N(CC(=O)NC1CCCCC1)C(=O)c1csnn1 | 12 |
| C[n+]1c2n(c3ccccc31)N=C(c1ccc(-c3ccccc3)cc1)CS2.[Br-] | -39 |
| CCOC(=O)/C(=C/c1c(C)n(C)c2ccc([N+](=O)[O-])cc12)C(C)=O | -5.86 |
| CC1(C)CCC(=O)N(c2ccccc2)C1=O | 10.3 |
